# Test results as given in PubChem BioAssay AID624417 (National Center for Advancing Translational Sciences (NCATS), 2012).
# Screen size: about 410,000 compounds; about 6,400 (1.6%) were called active. The inconclusive results got no clear call from the source; some entries with a clear call stand among them for comparison. Calls follow the shape of the dose curve; as a rule, active = well fitted inhibition curve with a large enough effect; inconclusive = small, poorly fitted or top-dose-only effect; inactive = no such curve, though single readings can be large or run the other way. Potencies of inconclusive entries are left out as doubtful fits.
# Target: Glucagon-like peptide 1 receptor (Homo sapiens) (UniProt P43220)
# Sequence of UniProt P43220 (P43220 whole entry, looked up): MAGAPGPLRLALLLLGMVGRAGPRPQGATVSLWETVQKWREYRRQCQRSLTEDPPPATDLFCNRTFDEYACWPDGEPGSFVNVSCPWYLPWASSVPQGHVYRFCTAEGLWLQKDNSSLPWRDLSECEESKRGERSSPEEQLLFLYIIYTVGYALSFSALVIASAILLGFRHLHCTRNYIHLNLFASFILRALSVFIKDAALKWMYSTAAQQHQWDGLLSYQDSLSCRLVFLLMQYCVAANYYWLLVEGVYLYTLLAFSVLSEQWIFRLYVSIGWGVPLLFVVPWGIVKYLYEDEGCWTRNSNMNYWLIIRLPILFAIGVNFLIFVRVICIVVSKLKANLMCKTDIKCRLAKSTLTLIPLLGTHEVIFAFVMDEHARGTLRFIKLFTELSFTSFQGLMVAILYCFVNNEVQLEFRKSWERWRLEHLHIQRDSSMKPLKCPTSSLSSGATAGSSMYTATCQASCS
# Assay: qHTS of GLP-1 Receptor Inverse Agonists (Inhibition Mode); also: nearly all actives have a fitted effect of over 55% in size
# Details: HEK293 GLP-1R CRE-luciferase, luminescence, 24 h, GLP-1R form is constitutively active; activity change, negative = inhibition: at 38.3 µM (top of the series) unless noted
# Method in brief: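 Constitutively active GLP-1R drives a cAMP-responsive luciferase in stably transfected HEK293 cells; test compounds are added after overnight (12 h) attachment and left 24 hr, and signal loss in luminescence marks inhibition.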
# % is scaled to controls: 0 for no effect and ±100 for the full control effect; potency is read from the fitted curve at half-maximal effect; tags tell the direction and shape of the fitted curve.
Structure (SMILES),Potency,"activity change, negative = inhibition"
O=S(=O)(c1ccc2nc(SCc3ccc(Cl)cc3)[nH]c2c1)N1CCOCC1,"inconclusive [inhibitor, single point]",
CC(C)N1C(=O)c2ccccc2NC(=O)C1C(=O)NCc1ccccc1 (stereo not drawn),,inactive: -3.33%
O=C(NCc1ccc(F)cc1)c1ccc(CS(=O)(=O)c2ccc(Br)cc2)o1,"inconclusive [inhibitor, single point]",
CC(C)CC(=O)Nc1cccc(-c2csc(-c3ccccc3)n2)c1,active: 10 µM,
CC(C)Cn1c(SCC(=O)N2CCc3ccccc3C2)nc2cc(Cl)ccc2c1=O,"inconclusive [inhibitor, single point]",
COc1ccc(NC(=O)CC(c2ccccc2)c2ccco2)cc1 (stereo not drawn),"inconclusive [inhibitor, single point]",
Cc1cccc(N2CCN(C(=O)C3CCN(S(=O)(=O)c4cccc5cccnc45)CC3)CC2C)c1 (stereo not drawn),"inconclusive [inhibitor, partial curve, poor fit]",
Cc1ccc(C)c(S(=O)(=O)N2CCCC2CNC(=O)C(=O)NCc2cccs2)c1 (stereo not drawn),"inconclusive [inhibitor, single point]",
N/C(=N\N=Cc1ccc2c(c1)OCO2)NN=Cc1ccc2c(c1)OCO2,"inconclusive [inhibitor, single point]",
O=C(Oc1c(-c2ccccc2)c(=O)n2c3c(cccc13)CC2)c1ccc(Cl)cc1,,inactive: 0.786%
O=C(NCc1ccco1)C1CC(c2ccc(C(F)(F)F)cc2)=NO1 (stereo not drawn),"inconclusive [inhibitor, full curve]",
CCN1CCN(Cc2ccc(NC(=O)c3ccc(C)c(NC(=O)c4cccc(-c5cn[nH]c(=O)c5)c4)c3)cc2C(F)(F)F)CC1,"inconclusive [inhibitor, partial curve, poor fit]",
Cc1cc(NC(=O)COC(=O)Cn2[nH]c(=O)c3ccccc3c2=O)c([N+](=O)[O-])cc1C,,inactive: 3.52%
CC(C)CN(CCCNC(=O)c1cc(=O)[nH]c2ccc(S(=O)(=O)N3CCCCCC3)cc12)CC(C)C,,inactive: 4.86%
O=C(C1CC1)N1CCN=C1SCc1cccc(C(F)(F)F)c1,"inconclusive [inhibitor, single point]",
C=C(C)c1cccc(C(C)(C)NC(=O)Nc2nncs2)c1,"inconclusive [inhibitor, partial curve, poor fit]",
O=C(CSCc1ccc(Cl)cc1)N/N=C/c1ccccc1,"inconclusive [inhibitor, full curve, poor fit]",
COc1cc(OC)nc(Oc2ccccc2/C=N/O)n1,,inactive: 15%
O=C(CC(=O)c1ccccc1)Nc1ccc([N+](=O)[O-])cc1,"inconclusive [inhibitor, single point]",
Cc1ccc(C)c(OCc2cc(C(=O)N3CCN(c4cnccn4)CC3)no2)c1,"inconclusive [inhibitor, single point]",
CCOC(=O)c1cccc(NC(=O)c2cc3sccc3n2Cc2ccc(Cl)cc2)c1,"inconclusive [inhibitor, partial curve, poor fit]",

Structure (SMILES),Potency,"activity change, negative = inhibition"
CCOc1ccc(CCNC(=O)CCc2cn(Cc3ccccc3F)c3ccccc23)cc1OCC,"inconclusive [inhibitor, partial curve, poor fit]",
CC(Sc1nn(-c2ccc(Cl)cc2)c(=S)s1)C(=O)NCC1CCCO1 (stereo not drawn),"inconclusive [inhibitor, single point]",
O=C(CSc1ccc(-c2nc3ccccc3[nH]2)cn1)Nc1ccc(S(=O)(=O)NC2CC2)cc1,"inconclusive [inhibitor, single point]",
CCOc1cc(C)c(S(=O)(=O)N2CCCCC2)cc1C,"inconclusive [inhibitor, single point]",
COc1ccccc1-c1cc(C(F)(F)F)nc(S(=O)(=O)CCCC(=O)N2CCOCC2)n1,"inconclusive [inhibitor, single point]",
COc1cccc(CN(C(=O)Cn2nnc(-c3ccccc3F)n2)C(C(=O)NC(C)(C)C)c2ccncc2)c1 (stereo not drawn),"inconclusive [inhibitor, partial curve, poor fit]",
COCCn1c(=O)[nH]c2cc(C(=O)NCc3ccccc3Cl)ccc2c1=O,"inconclusive [inhibitor, full curve]",
O=C(NCCc1ccc(Cl)cc1)Nc1cccc(Cl)c1,"inconclusive [inhibitor, partial curve, poor fit]",
CCN(CCNC(=O)C1CCN(c2nnc(-n3cccc3)s2)CC1)c1ccccc1,"inconclusive [inhibitor, single point]",
COc1cccc(-c2cnc3c(NC=O)cc(-c4cc(OC)c(OC)c(OC)c4)cn23)c1,"inconclusive [inhibitor, single point]",
CCOC(=O)N1CCN(C(=O)c2ccc(-n3c(=S)[nH]c4ccccc4c3=O)cc2)CC1,,inactive: 17.6%
CC(=O)N1C(C)c2ccccc2C(C)(C)CC12CCCCC2 (stereo not drawn),"inconclusive [inhibitor, single point]",
Cc1csc(NC(=O)c2cc3c(s2)CCCC3)n1,"inconclusive [inhibitor, partial curve, poor fit]",
COc1ccc(-c2cc(C(=O)N3CCCC(C(F)(F)F)C3)c3ccccc3n2)cc1OC (stereo not drawn),"inconclusive [inhibitor, single point]",
CCN(c1ncnc2c1cnn2-c1ccc(C)cc1)C1CCCCC1,"inconclusive [inhibitor, full curve, poor fit]",
O=c1[nH]c2ccccc2cc1CN(Cc1ccco1)S(=O)(=O)c1ccccc1,"inconclusive [inhibitor, single point]",
Cc1ccc(-c2cc(C(=O)N3CCCc4ccccc43)no2)cc1,"inconclusive [inhibitor, single point]",
Cc1ccccc1CN1CCN(C(=O)c2cc(-c3ccncc3)nc3ccccc23)CC1,"inconclusive [inhibitor, single point]",
CN(CC(=O)Nc1ccccc1Cl)C(=O)Cn1nnc(-c2ccc(F)cc2)n1,"inconclusive [inhibitor, single point]",
OCCNCc1c(OCc2ccc(Cl)cc2)ccc2ccccc12,"inconclusive [inhibitor, partial curve, poor fit]",
Cc1ccc(C(=O)Nc2ccc3c(c2)OCCO3)c(C)c1,"inconclusive [inhibitor, partial curve, poor fit]",

Structure (SMILES),Potency,"activity change, negative = inhibition"
CN(C)CCN(C(=O)C1CCN(S(=O)(=O)c2cccs2)CC1)c1nc2c(F)cccc2s1,,inconclusive: -35.2% [inhibitor]
O=S1(=O)CC(N2CCC(Cc3ccccc3)CC2)CN1CCc1ccccc1 (stereo not drawn),"inconclusive [inhibitor, single point]",
CCCSc1nc2sc3c(c2c(=O)n1-c1ccc(OC)cc1)CCN(C)C3,"inconclusive [inhibitor, partial curve, poor fit]",
CCC(CO)NC(=O)C(=O)Nc1c2c(nn1-c1ccc(F)cc1)CSC2 (stereo not drawn),,inactive: 9.06%
Cc1ccc(NC(=O)CSc2nnc(COc3ccc(C#N)cc3)n2-c2ccccc2)cc1C,"inconclusive [inhibitor, single point]",
O=C(O)c1ccc(/C=C2/SC(=S)N(Cc3ccccc3)C2=O)cc1,,inactive: -18.3%
CN(c1ccc(C(=O)NCCSCc2ccccc2)cc1)S(=O)(=O)c1ccccc1,"inconclusive [inhibitor, single point]",
CCOC(=O)c1cc(S(=O)(=O)NCc2ccccc2)[nH]n1,,inactive: 9.85%
O=C(O)c1cc2c(ccc3ccccc32)o1,,inactive: 8.42%
CC(C)(C)c1ccc(S(=O)(=O)NCc2ccc3c(c2)CCN3C(=O)c2ccccc2)cc1,"inconclusive [inhibitor, single point]",
COc1cc(C2c3cc4c(cc3OC(N3CCOCC3)C2C)OCO4)cc(OC)c1OC(C)=O (stereo not drawn),"inconclusive [inhibitor, single point]",
Cc1cc(C)n(-c2cc(N3CCN(C(=O)c4ccc(C(C)(C)C)cc4)CC3)ccc2[N+](=O)[O-])n1,"inconclusive [inhibitor, single point]",
O=C(CCNC(=O)c1ccccc1Cl)NCCCSc1ccccc1,,inactive: -8.89%
Cc1cccc(NC(=S)N2CCN(c3cc(C)ccc3C)CC2)c1,"inconclusive [inhibitor, single point]",
CCOC(=O)N1CCN(C(=O)Cc2ccc(C)cc2)CC1,,inactive: 4.73%
CN(C)CCN(C(=O)c1ccc2ccccc2c1)c1nc2cc3c(cc2s1)OCO3,"inconclusive [inhibitor, single point]",
CCOC(=O)CC1(NC(=O)c2cc(COc3c(F)cccc3F)on2)CCCCC1,"inconclusive [inhibitor, partial curve, poor fit]",
Cc1c(Cl)cccc1NC(=O)c1cccc(OC(F)F)c1,"inconclusive [inhibitor, single point]",
CC(C)CCC(O)(c1ccccc1)C(CN1CCOCC1)c1ccccc1 (stereo not drawn),,inconclusive: -92.1% [inhibitor]
O=C(Nc1ccc(S(=O)(=O)Nc2nccs2)cc1)c1cc(-c2ccccn2)nc2ccccc12,,inactive: 4.51%
O=C(COc1ccccc1-c1ccccc1)NCc1ccco1,"inconclusive [inhibitor, single point]",
